# Results published in PubChem BioAssay AID445 (National Center for Advancing Translational Sciences (NCATS), 2006).
# The whole screen tested about 110,000 compounds, of which about 40 (0.04%) were called active. This list was built around the results that the source calls inconclusive (neither active nor inactive); the mix of calls is not that of the screen. Calls come from the whole dose curve; as a rule, active = well fitted curve in the direction sought with a large enough effect in the signal ratio (not every such curve was filed as active); inconclusive = small, poorly fitted or top-dose-only effect, or a change in a side signal; inactive = flat fitted curve, though single readings scatter; the % refers to the signal ratio. Where the call is inconclusive, the potency comes from a doubtful curve fit.
# Experiment: IkB Signaling;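 for IkBa stabilization activation: 0% = basal untreated cells and 100% = reference inhibitor full response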
# Details: ABC-DLBCL IkBa-CBG/CBR dual luciferase ratio (green luciferase fused to IkBa over red control in OCI-Ly3 lymphoma cells), 4 h; IkBa stabilization activation: at 57.1 µM (top of the series), scaled: untreated 0%, proteasome inhibitor 100% unless noted
# In short: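 Luminescence ratio of IκBα-fused green versus native red beetle luciferase in OCI-Ly3 cells, 4 h post-doxycycline with compound; red signal alone, scaled from basal (0%) to zero light (-100%), flagged nonspecific or cytotoxic effects.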
# Potency is the fitted concentration of half-maximal effect.
Structure (SMILES),IkBa stabilization activation,Potency
CCOc1ccccc1N1CCN(c2nc(N)c(C#N)c(CC#N)c2C#N)CC1,inconclusive: 15.6% [signal inhibitor],
Cc1cccc2c1Oc1ccccc1[C@@H]2NC(=O)c1ccc([N+](=O)[O-])cc1,"inactive: 1.84% [at 11.4 µM, scaled: untreated 0%, proteasome inhibitor 100%]",
Cc1ccc(NC(=O)C2CCCN(S(=O)(=O)c3cccc4cccnc34)C2)cc1 (stereo unspecified),inconclusive: 1.84% [signal inhibitor],
O=C(/C=C/Nc1ccccc1Br)c1ccccn1,,"inconclusive: 25.1 µM [signal inhibitor, partial curve]"
CCOC(=O)N1CCC(Nc2c(N3CCN(c4cc(Cl)ccc4C)CC3)c(=O)c2=O)CC1,inconclusive: 6.42% [signal inhibitor],
Brc1ccc(OCCOCCN2CCOCC2)cc1,inactive,
Cc1nn(C(C)C(=O)N2CCN(c3ccc(Cl)cc3)CC2)c(=O)c2cc3occc3n12 (stereo unspecified),inconclusive: 0.683% [signal inhibitor],
Cc1ccc(S(=O)(=O)N2CCC(C(=O)Nc3ccc(C)c(Cl)c3)CC2)cc1,inconclusive: 8.84% [signal inhibitor],
COc1ccc(OC)c(C2C(C(C)=O)=C(O)C(=O)N2CCC(=O)O)c1 (stereo unspecified),inactive,
COc1ccc(CCNC(=O)C(=O)NCC(c2cccs2)S(=O)(=O)c2ccc(C)cc2)cc1 (stereo unspecified),inconclusive: 3.9% [signal inhibitor],
COc1ccc(CNC(=O)C2CCCN(c3nc4ccccc4o3)C2)c(OC)c1 (stereo unspecified),inactive,
CCOC(=O)c1c(C)[nH]c(C)c1S(=O)(=O)N1CCN(c2cccc(C(F)(F)F)c2)CC1,inconclusive: 2.15% [signal inhibitor],
COc1ccc(-n2nc(C)c3c(C(F)(F)F)cc(-c4cccnc4)nc32)cc1,inactive,
COc1ccc(C(=O)Nc2cccc(C)c2)cc1,,"inconclusive: 25.1 µM [signal inhibitor, partial curve]"
CCN(C(=O)CSc1nc(-c2ccc(C(C)C)cc2)no1)c1cccc(C)c1,inactive,
COc1cc(NC(=O)c2cc3c(=O)n(C)c4ccccc4c3n2C)cc(OC)c1OC,inactive,
Cc1ccnc(-n2sc3ccccc3c2=O)n1,inconclusive: -0.226% [signal inhibitor],
Cc1ccc(-n2c(-c3ccco3)nc3c(cnn3-c3ccccc3Cl)c2=O)cc1,inactive,
COc1ccc(CNC(=O)CCCn2nc(C)c3c(C)n(-c4ccccc4)nc3c2=O)cc1,inconclusive: 2.25% [signal inhibitor],
COc1ccc(OC)c(NS(=O)(=O)c2ccc(-c3cc(C)no3)s2)c1,inconclusive: 4.93% [signal activator],
CCn1cc2nc(SCc3cccc(Cl)c3)n(Cc3ccc(C)cc3)c(=O)c2n1,inconclusive: 8.63% [signal inhibitor],
O=C(O)C1CC(=O)N(c2ccc(OCc3ccccc3Cl)cc2)C1 (stereo unspecified),,"inconclusive: 25.1 µM [signal inhibitor, partial curve]"
CC(C)c1cnc2c(c1SCC(=O)Nc1cccc(F)c1)c(=O)n(C)c(=O)n2C,inconclusive: -0.784% [signal inhibitor],
O=C(Nc1cccc(F)c1)C1CCN(S(=O)(=O)c2cccc3nsnc23)CC1,inconclusive: 1.04% [signal inhibitor],

Structure (SMILES),IkBa stabilization activation,Potency
COc1cc2c(cc1OC)CN(c1ccc(-c3ccccc3OC)nn1)CC2,inconclusive: 12.2% [signal inhibitor],
CCOc1ccc(N2Cc3ccccc3C2)cc1,inactive,
CN=c1scc(C)n1/N=C/c1ccc2c(c1)OCO2,inconclusive: 3.3% [signal inhibitor],
COc1cccc(C2CC(c3ccccc3OC)n3nc(N)nc3N2)c1 (stereo unspecified),inactive,
CCCN(CCC)S(=O)(=O)c1ccc(C(=O)Nc2sc3c(c2C(=O)OC)CCN(CC)C3)cc1,inconclusive: 0.365% [signal inhibitor],
O=C(CN1CCSc2ccccc21)N1CCN(c2ccc(F)cc2)CC1,inconclusive: 2.54% [signal inhibitor],
CCCN(Cc1cccs1)C(=O)Nc1cc(OC)ccc1OC,inconclusive: 1.77% [signal inhibitor],
Cc1ccc(N(C)C(=O)c2cc(S(=O)(=O)N3CCOCC3)cn2C)cc1,inactive,
COc1ccc(-c2cc(-c3ccccc3)nc(N3CCCC3)n2)cc1OC,inactive,
O=C(Nc1ccccc1F)c1cc(S(=O)(=O)N2CCCCC2)cs1,inconclusive: 4.26% [signal inhibitor],
Cc1ccc(-n2nc3c(N4CCC(C(=O)NCc5ccccc5Cl)CC4)nnc(C)c3c2C)cc1,inconclusive: 3.71% [signal inhibitor],
N#CC1=C2SCN(Cc3ccco3)CN2C(=O)CC1c1cccc2ccccc12 (stereo unspecified),inconclusive: 6.3% [signal inhibitor],
CC(C)c1nc(SCC(=O)Nc2ccc3c(c2)OCCO3)c2c(=O)n(C)c(=O)n(C)c2n1,inactive,
Cc1ccc(-c2nn3c(C)nnc3s2)cc1NC(=O)c1ccc(-c2cccc(Cl)c2)o1,inconclusive: -1.04% [signal inhibitor],
CCOc1cc2sc(N3CCC(C(=O)Nc4cc(C)cc(C)c4)CC3)nc2cc1Br,inconclusive: 5.55% [signal inhibitor],
COC(=O)c1cc2sc(Cl)cc2n1Cc1cc(C)ccc1C,inactive,
CC(C)(C)NC(=O)C(c1ccncc1)N(Cc1cccs1)C(=O)Cn1nnc(-c2cccs2)n1 (stereo unspecified),inactive,
Cc1csc(NC(=O)CCN2C(=O)c3ccccc3S2(=O)=O)n1,inactive,
COC(=O)c1ccc(CSc2nnc3ccc4ccccc4n23)cc1,inconclusive: -0.182% [signal inhibitor],
COc1ccccc1Cn1cc(C(=O)c2ccc(C)cc2)c(=O)c2cc3c(cc21)OCCO3,inconclusive: -0.612% [signal inhibitor],
CCn1cc2c(n1)-c1c(oc(C(=O)Nc3cccc(C(F)(F)F)c3)c1C)CC2,inconclusive: 0.247% [signal inhibitor],
CC(=O)O[C@]12CC[N@+]3(C)CCCC[C@@H]3[C-]1Nc1ccccc12,"inactive: 0.181% [at 11.4 µM, scaled: untreated 0%, proteasome inhibitor 100%]",
Cc1nc(N)[nH]c(=O)c1CCC(=O)OCC(C)C,inactive,
Cc1cc(C(=O)Nc2cc(C)n(Cc3ccc(Cl)cc3)n2)no1,inconclusive: 4.18% [signal inhibitor],

Structure (SMILES),IkBa stabilization activation,Potency
O=C(CN1C(=O)c2ccccc2C1=O)N1CCN(c2ccccn2)CC1,inactive,
c1ccc(Nc2nc(-c3cccs3)cs2)nc1,inconclusive: 10.3% [signal inhibitor],
O=c1cc(-c2ccccc2)n2c(SCc3c(F)cccc3Cl)nnc2[nH]1,inactive,
Cc1ccc(NC(=O)C(=O)NCc2ccco2)cc1,,"inconclusive: 20 µM [signal inhibitor, partial curve]"
Cc1ccc(C(=O)N2CCN(c3ccccc3)CC2)cc1C,inactive,
COc1ccccc1OCC(=O)NCC(c1ccc(Cl)cc1)N1CCOCC1 (stereo unspecified),inconclusive: 1.28% [signal inhibitor],
NC[C@H]1O[C@H](n2cnc3c(N)ncnc32)C[C@@H]1O,"inactive: -1.16% [at 11.4 µM, scaled: untreated 0%, proteasome inhibitor 100%]",
O=C(NCCc1ccccc1)c1noc2c1CCCCC2,inconclusive: 9.14% [signal inhibitor],
CC(C)CC(=O)NC1(C(F)(F)F)C(=O)Nc2c1c(=O)[nH]c(=O)n2-c1ccccc1 (stereo unspecified),inactive,
COc1cc(C(=O)NC(c2ccc(Cl)cc2)c2cc(Cl)c3cccnc3c2O)cc(OC)c1OC (stereo unspecified),inconclusive: 10.5% [signal inhibitor],
c1ccc(C2(c3ccccc3)OCC(Cn3cncn3)O2)cc1 (stereo unspecified),inconclusive: 0.608% [signal inhibitor],
Cn1c(=O)c2c(-c3ccccc3)n(-n3cnnc3)cc2n(C)c1=O,,"inconclusive: 31.6 µM [rising, partial curve]"
CCOc1ccccc1NC(=O)C(CC)n1c(C(=O)OC)cc2occc21 (stereo unspecified),inconclusive: -1.74% [signal inhibitor],
COc1cc(C2c3c(-c4ccccc4O)n[nH]c3C(=O)N2Cc2ccco2)ccc1OCC(C)C (stereo unspecified),inconclusive: -0.32% [signal inhibitor],
CCCn1c(=NC(=O)c2cc3ccccc3o2)c(C(=O)OCC)cc2c(=O)n3ccccc3nc21,inactive,
COc1ccc(N(C(=O)/C=C\C(=O)Nc2ccc(C)cc2)C(C(=O)NCc2ccco2)c2ccc(C)cc2)cc1 (stereo unspecified),inconclusive: 2.59% [signal inhibitor],
O=C(Cn1ncc2ccsc2c1=O)N1CCN(c2ccccc2F)CC1,inconclusive: -1.96% [signal inhibitor],
Cc1ccc2cccc(OC(=O)c3ccc4c(c3)OCCO4)c2n1,,"inconclusive: 31.6 µM [rising, single point]"
COc1ccccc1CNC(=O)CC(c1ccc(C)cc1)N1Cc2ccccc2C1=O (stereo unspecified),inconclusive: 1.88% [signal inhibitor],
COc1cccc(-c2nnc(SCC(=O)Nc3cc(C)on3)o2)c1,inactive,
Cc1cc(C)cc(-n2ccn(Cc3ccccc3C)c(=O)c2=O)c1,inactive,
O=C(Nc1cccc(F)c1)N1CC[C@@]2(CCCN(S(=O)(=O)c3ccccc3)C2)C1,"inactive: -0.743% [at 11.4 µM, scaled: untreated 0%, proteasome inhibitor 100%]",
COC(=O)N1CCC[C@@]2(CCN(C(=O)Nc3cccc(F)c3)C2)C1,"inactive: 2.53% [at 11.4 µM, scaled: untreated 0%, proteasome inhibitor 100%]",
